Measurements published in US20240066131A1 (Protagonist Therapeutics, Inc., priority 2020, published 2024).
Not every detail of the peptide structures is certain; ends, links or a residue may be inferred. At least one compound was matched to its structure with a doubt left. Starred links: 1 amine or outer side, 2 acyl side, 3 side chain; linkers in the order of their positions; H or OH if unused. Positions of bridges follow the written chain, without caps; N, C: chain ends. Non-standard residues stand in square brackets, D forms with d. Residues, ends and D or L forms follow the SMILES beside them. Groups on a side chain read outwards from the residue. ξ: configuration not given here. *: point of attachment. Ala(1H-tetrazol-5-yl) = N[C@@H](Cc1nnn[nH]1)C(=O)O; X17 = O=C([C@H](Cc1cc(F)cc(F)c1F)N[*:1])[*:2]; C18 diacid = O=C(O)CCCCCCCCCCCCCCCCC(=O)*; Dip = N[C@H](C(=O)O)C(c1ccccc1)c1ccccc1; γGlu = O=C(O)[C@H](CCC(=O)[*:2])N[*:1]; His(τ-Me) = Cn1cnc(C[C@H](N)C(=O)O)c1; NH(4-phenylbutyl) = c1ccc(CCCCN*)cc1; X7 = O=C(CC[C@@H]1CCCN1[*:1])[*:2]; Palmitoyl = CCCCCCCCCCCCCCCC(=O)*; hIle(4ξ) = CCC(C)C[C@H](N)C(=O)O; β3hF = N[C@H](CC(=O)O)Cc1ccccc1; NMeK = CN[C@@H](CCCCN)C(=O)O; Isovaleryl = CC(C)CC(=O)*; Heptanoyl = CCCCCCC(=O)*; Dap = NC[C@H](N)C(=O)O; AEEA = NCCOCCOCC(=O)O; Ahx = NCCCCCC(=O)O

Molecular target: T1, ferroportin (Homo sapiens, UniProt Q9NP59)
T1 sequence (Q9NP59 1-571): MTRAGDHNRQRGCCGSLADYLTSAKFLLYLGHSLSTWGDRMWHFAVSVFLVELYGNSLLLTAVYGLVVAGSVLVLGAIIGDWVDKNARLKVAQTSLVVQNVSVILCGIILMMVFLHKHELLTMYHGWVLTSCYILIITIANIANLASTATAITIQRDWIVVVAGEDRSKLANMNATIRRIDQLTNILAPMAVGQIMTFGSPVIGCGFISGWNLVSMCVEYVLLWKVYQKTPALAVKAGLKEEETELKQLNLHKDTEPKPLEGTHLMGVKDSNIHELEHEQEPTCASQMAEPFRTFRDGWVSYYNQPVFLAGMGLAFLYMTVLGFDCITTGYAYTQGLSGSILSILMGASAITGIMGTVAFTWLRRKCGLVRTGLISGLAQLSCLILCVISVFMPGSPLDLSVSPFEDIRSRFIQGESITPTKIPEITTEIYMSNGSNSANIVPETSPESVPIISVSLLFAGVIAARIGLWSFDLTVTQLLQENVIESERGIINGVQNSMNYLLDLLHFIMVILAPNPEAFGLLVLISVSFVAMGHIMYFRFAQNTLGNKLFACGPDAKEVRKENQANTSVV
Test: FPN activity assay: internalization/degradation of ferroportin-GFP in stably transfected HEK293 cells (loss of GFP fluorescence)
Assay type: cell-based
Details: Table 6A; read-out: FPN EC50
Description: Following internalization, the ferroporin protein is degraded.
A retro inverse peptide is a peptide with a reversed sequence in all D amino acids. An example is that Hy-Glu-Thr-His-NH2 becomes Hy-DHis-DThr-DGlu-NH2. The EC50 of these reference compounds for ferroportin internalization/degradation was determined according to the FPN activity assay described above. These peptides served as control standards.

SMILES | DC50 [nM]
CCCCCCCCCCCCCCCC(=O)NCCCCCC(=O)NCCCC[C@H](NC(=O)[C@@H](NC(=O)[C@@H]1CCCCNC(=O)CC[C@H](NC(=O)[C@H](Cc2c[nH]cn2)NC(=O)[C@@H](NC(=O)[C@H](C)NC(=O)CC(C)C)[C@@H](C)O)C(=O)N2CCC[C@H]2C(=O)N1)[C@@H](C)CC)C(=O)N[C@H](CC(=O)N[C@@H](CCCNC(=N)N)C(N)=O)Cc1ccccc1 [compound 62] (Isovaleryl-ATHEPKIK([Ahx-Palmitoyl])[β3hF]R-NH2; lactam 4-6) | > 3000
CCCCCCCCCCCCCCCC(=O)NCCCCCC(=O)NCCCC[C@H](NC(=O)[C@@H](NC(=O)[C@@H]1CCC(=O)NCCCC[C@H](NC(=O)[C@H](Cc2c[nH]cn2)NC(=O)[C@@H](NC(=O)[C@H](C)NC(=O)CC(C)C)[C@@H](C)O)C(=O)N2CCC[C@H]2C(=O)N1)[C@@H](C)CC)C(=O)N[C@H](CC(=O)N[C@@H](CCCNC(=N)N)C(N)=O)Cc1ccccc1 [compound 63] (Isovaleryl-ATHKPEIK([Ahx-Palmitoyl])[β3hF]R-NH2; lactam 4-6) | > 3000
CC[C@H](C)[C@H](NC(=O)[C@H](C)NC(=O)[C@@H]1CCCN1C(=O)[C@@H](NC(=O)[C@H](Cc1cc(F)cc(F)c1F)NC(=O)[C@@H](NC(=O)[C@H](CCC(=O)O)NC(=O)CC(C)C)[C@@H](C)O)C(c1ccccc1)c1ccccc1)C(=O)N[C@@H](CCCCNC(C)=O)C(=O)N[C@H](CC(N)=O)Cc1ccccc1 [compound 65] (Isovaleryl-ET[X17][Dip]PAIK(Ac)[β3hF]-NH2) | 1780
CCCCCCCCCCCCCCCC(=O)NCCCCCC(=O)NCCCC[C@H](NC(=O)CC[C@@H]1CCCN1C(=O)[C@@H](NC(=O)[C@H](Cc1c[nH]cn1)NC(=O)[C@@H](NC(=O)[C@H](CCC(=O)O)NC(=O)CC(C)C)[C@@H](C)O)C(c1ccccc1)c1ccccc1)C(=O)N[C@H](CC(N)=O)Cc1ccccc1 [compound 82] (Isovaleryl-ETH[Dip][X7]K([Ahx-Palmitoyl])[β3hF]-NH2) | 32.7
CCCCCCCCCCCCCCCC(=O)NCCCCCC(=O)NCCCC[C@H](NC(=O)[C@@H](NC(=O)[C@H](CC(C)CC)NC(=O)[C@@H]1CCCN1C(=O)[C@@H](NC(=O)[C@H](Cc1c[nH]cn1)NC(=O)[C@@H](NC(=O)[C@H](CCC(=O)O)NC(=O)CC(C)C)[C@@H](C)O)C(c1ccccc1)c1ccccc1)[C@@H](C)CC)C(=O)N[C@H](CC(N)=O)Cc1ccccc1 (stereo partly drawn) [compound 119] (Isovaleryl-ETH[Dip]P[hIle(4ξ)]IK([Ahx-Palmitoyl])[β3hF]-NH2) | 228

Same assay, conditions: ferroportin-GFP HEK293 cells, compound incubated at least 18 hours; read-out: FPN IC50

DC50 [nM] | SMILES
> 3000 | CCCCCCCCCCCCCCCC(=O)NCCCCCC(=O)NCCCC[C@H](NC(=O)[C@@H]1CCCN1C(=O)[C@@H](NC(=O)[C@H](Cc1c[nH]cn1)NC(=O)[C@@H](NC(=O)[C@H](CC(C)C)NC(=O)CCCCCC)[C@@H](C)O)C(c1ccccc1)c1ccccc1)C(=O)NCCCCc1ccccc1 [compound 269] (Heptanoyl-LTH[Dip]PK([Ahx-Palmitoyl])-{NH(4-phenylbutyl)})
> 3000 | CCCCCCCCCCCCCCCC(=O)NCCCCCC(=O)NCCCC[C@H](NC(=O)[C@@H](NC(=O)[C@H](Cc1c[nH]cn1)NC(=O)[C@@H](NC(=O)[C@H](CC(C)C)NC(=O)CC(C)C)[C@@H](C)O)C(c1ccccc1)c1ccccc1)C(=O)NCCCCc1ccccc1 [compound 272] (Isovaleryl-LTH[Dip]K([Ahx-Palmitoyl])-{NH(4-phenylbutyl)})
1040 | CC(C)CC(=O)N[C@@H](CC(C)C)C(=O)N[C@H](C(=O)N[C@@H](Cc1c[nH]cn1)C(=O)N[C@H](C(=O)N1CCC[C@H]1C(=O)NCCCCc1ccccc1)C(c1ccccc1)c1ccccc1)[C@@H](C)O [compound 273] (Isovaleryl-LTH[Dip]P-{NH(4-phenylbutyl)}; C-terminus assumed)

More lines, now with the values behind:

SMILES | DC50 [nM]
CC[C@H](C)[C@@H]1NC(=O)[C@@H](NC(=O)[C@@H]2CCCN2C(=O)[C@H](Cc2ccccc2)NC(=O)[C@H](Cc2c[nH]cn2)NC(=O)[C@@H](NC(=O)[C@H](CCC(=O)O)NC(=O)CC(C)C)[C@@H](C)O)CNC(=O)CC[C@@H](C(=O)N[C@@H](CCCCN)C(N)=O)NC(=O)CNC(=O)[C@H](CCCCN)NC(=O)[C@H](CO)NC(=O)[C@H](CCCNC(=N)N)NC(=O)[C@@H]2CCCN2C(=O)[C@H](CCC(=O)O)NC(=O)[C@H](Cc2ccccc2)NC(=O)[C@H](CCCCNC(=O)COCCOCCNC(=O)COCCOCCNC(=O)CC[C@H](NC(=O)CCCCCCCCCCCCCCCCC(=O)O)C(=O)O)NC1=O [compound 232] (Isovaleryl-ETHFP[Dap]IK([AEEA-AEEA-γGlu-C18 diacid])FEPRSKGEK-NH2; lactam 6-16 (inferred)) | > 10000
CC[C@H](C)[C@@H]1NC(=O)[C@@H](NC(=O)[C@@H]2CCCN2C(=O)[C@H](Cc2ccccc2)NC(=O)[C@H](Cc2c[nH]cn2)NC(=O)[C@@H](NC(=O)[C@H](CCC(=O)O)NC(=O)CC(C)C)[C@@H](C)O)CCC(=O)NC[C@@H](C(=O)N[C@@H](CCCCN)C(N)=O)NC(=O)CNC(=O)[C@H](CCCCN)NC(=O)[C@H](CO)NC(=O)[C@H](CCCNC(=N)N)NC(=O)[C@@H]2CCCN2C(=O)[C@H](CCC(=O)O)NC(=O)[C@H](Cc2ccccc2)NC(=O)[C@H](CCCCNC(=O)COCCOCCNC(=O)COCCOCCNC(=O)CC[C@H](NC(=O)CCCCCCCCCCCCCCCCC(=O)O)C(=O)O)NC1=O [compound 233] (Isovaleryl-ETHFPEIK([AEEA-AEEA-γGlu-C18 diacid])FEPRSKG[Dap]K-NH2; lactam 6-16 (inferred)) | > 10000
CCCCCCCCCCCCCCCC(=O)N[C@@H](CCC(=O)NCCCC[C@H](NC(=O)[C@@H]1CCCN1C(=O)[C@@H](NC(=O)[C@H](Cc1c[nH]cn1)NC(=O)[C@@H](NC(=O)[C@H](CC(C)C)NC(=O)CC(C)C)[C@@H](C)O)C(c1ccccc1)c1ccccc1)C(=O)NCCCCc1ccccc1)C(=O)O [compound 259] (Isovaleryl-LTH[Dip]PK([γGlu-Palmitoyl])-{NH(4-phenylbutyl)}) | 222

Molecular target: T1, ferroportin
Test: T47D cell-based ferroportin internalization assay in presence of mouse serum albumin (MSA), AF647 detection peptide, flow cytometry
Parameters: a human breast carcinoma adherent cell line which endogenously expresses ferroportin; host or cells: T47D
Details: T47D cells, in presence of mouse serum albumin (MSA); read-out: T47D IC50
Description: The potency of the peptides in causing ferroportin internalization was evaluated in a T47D cell-based assay. […] In this internalization assay, the potency of the test peptides was evaluated in presence of serum albumin which is the main protein component in the blood. T47D cells were maintained in RPMI media (containing required amount of fetal bovine serum) and regularly sub-cultured. […] The test peptide dilution series were allowed to incubate at room temperature for 30 min. Then the media was aspirated from the 96-well cell plate and test peptide dilution series were added. After 1 hr incubation, the media with test peptides was aspirated out and A1F647-conjugated detection peptide was added at fixed concentration of 200 nM. […] The cells were washed again after a 2 hr incubation in preparation for flow cytometry analysis. The Median Fluorescence Intensity (MFI) of the AF647-positive population was measured (after removing dead cells and non-singlets from the analysis). The MFI values were used to generate a dose-response curve and obtain IC50 potencies for the test peptides. The IC50 potencies were calculated by using 4-parameter non-linear fitting function in Graphpad Prism (Table 6D).

SMILES | IC50 [nM]
CCCCCCCCCCCCCCCC(=O)NCCCCCC(=O)NCCCC[C@H](NC(=O)[C@@H]1CCCN1C(=O)[C@@H](NC(=O)[C@H](Cc1c[nH]cn1)NC(=O)[C@@H](NC(=O)[C@H](CC(C)C)NC(=O)CC(C)C)[C@@H](C)O)C(c1ccccc1)c1ccccc1)C(=O)NCCCCc1ccccc1 [compound 225] (Isovaleryl-LTH[Dip]PK([Ahx-Palmitoyl])-{NH(4-phenylbutyl)}; C-terminus assumed) | 389
CCCCCCCCCCCCCCCC(=O)NCCCCCC(=O)NCCCC[C@H](NC(=O)[C@@H](NC(=O)[C@H](Cc1c[nH]cn1)NC(=O)[C@@H](NC(=O)[C@H](CCC(=O)O)NC(=O)CC(C)C)[C@@H](C)O)C(c1ccccc1)c1ccccc1)C(=O)NCCCCc1ccccc1 [compound 271] (Isovaleryl-ETH[Dip]K([Ahx-Palmitoyl])-{NH(4-phenylbutyl)}) | 464

Same assay, conditions: second Table 6D, T47D/MSA data; with mouse serum albumin; read-out: T47D MSA IC50

IC50 [nM] | SMILES
464 | CCCCCCCCCCCCCCCC(=O)NCCCCCC(=O)NCCCC[C@H](NC(=O)[C@@H](NC(=O)[C@H](Cc1c[nH]cn1)NC(=O)[C@@H](NC(=O)[C@H](CCC(=O)O)NC(=O)CC(C)C)[C@@H](C)O)C(c1ccccc1)c1ccccc1)C(=O)NCCCCc1ccccc1 [compound 271] (Isovaleryl-ETH[Dip]K([Ahx-Palmitoyl])-{NH(4-phenylbutyl)})
10.1 | CCCCCCCCCCCCCCCC(=O)NCCCCCC(=O)NCCCC[C@H](NC(=O)[C@@H]1CCCN1C(=O)[C@@H](NC(=O)[C@H](Cc1c[nH]cn1)NC(=O)[C@@H](NC(=O)[C@H](CCC(=O)O)NC(=O)CCC)[C@@H](C)O)C(c1ccccc1)c1ccccc1)C(=O)NCCCCc1ccccc1 [compound 283]
12.7 | CCCCCCCCCCCCCCCC(=O)NCCCCCC(=O)NCCCC[C@H](NC(=O)[C@@H]1CCCN1C(=O)[C@@H](NC(=O)[C@H](Cc1c[nH]cn1)NC(=O)[C@@H](NC(=O)[C@H](CCC(=O)O)NC(=O)CC(C)C)[C@@H](C)O)C(c1ccccc1)c1ccccc1)C(=O)NCCCCCc1ccccc1 [compound 288]

Continued, molecule first:

SMILES | IC50 [nM]
CCCCCCCCCCCCCCCC(=O)NCCCCCC(=O)NCCCC[C@H](NC(=O)C[C@H](Cc1ccccc1)NC(=O)[C@H](CCCCN)N(C)C(=O)[C@@H](NC(=O)[C@H](C)NC(=O)[C@@H]1CCCN1C(=O)[C@@H](NC(=O)[C@H](Cc1cn(C)cn1)NC(=O)[C@@H](NC(=O)[C@H](Cc1nn[nH]n1)NC(=O)CC(C)C)[C@@H](C)O)C(c1ccccc1)c1ccccc1)[C@@H](C)CC)C(N)=O [compound 50] (Isovaleryl-[Ala(1H-tetrazol-5-yl)]T[His(τ-Me)][Dip]PAI[NMeK][β3hF]K([Ahx-Palmitoyl])-NH2) | 3.94
CCCCCCCCCCCCCCCC(=O)NCCCCCC(=O)NCCCC[C@H](NC(=O)[C@@H]1CCCN1C(=O)[C@@H](NC(=O)[C@H](Cc1c[nH]cn1)NC(=O)[C@@H](NC(=O)[C@H](CC(C)C)NC(=O)CC(C)C)[C@@H](C)O)C(c1ccccc1)c1ccccc1)C(=O)NCCCCc1ccccc1 [compound 225] (Isovaleryl-LTH[Dip]PK([Ahx-Palmitoyl])-{NH(4-phenylbutyl)}; C-terminus assumed) | 389
